Reference: paper PMC4336329 (PLoS ONE, 2015)
Among all 310,000 compounds or so, about 14,000 (4.5%) showed an effect of 50% or more. The effect is printed as a negative number. This is one part of the list.

Each compound was assayed against human ether-à-go-go-related gene (hERG) potassium channel (human, UniProt Q12809) (assay: primary screen, population patch clamp on CHO cells stably expressing hERG).
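Note: peak tail current of the secondary pulse compared with the same well before compound.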

Chain of human ether-à-go-go-related gene (hERG) potassium channel (Q12809 whole entry, looked up): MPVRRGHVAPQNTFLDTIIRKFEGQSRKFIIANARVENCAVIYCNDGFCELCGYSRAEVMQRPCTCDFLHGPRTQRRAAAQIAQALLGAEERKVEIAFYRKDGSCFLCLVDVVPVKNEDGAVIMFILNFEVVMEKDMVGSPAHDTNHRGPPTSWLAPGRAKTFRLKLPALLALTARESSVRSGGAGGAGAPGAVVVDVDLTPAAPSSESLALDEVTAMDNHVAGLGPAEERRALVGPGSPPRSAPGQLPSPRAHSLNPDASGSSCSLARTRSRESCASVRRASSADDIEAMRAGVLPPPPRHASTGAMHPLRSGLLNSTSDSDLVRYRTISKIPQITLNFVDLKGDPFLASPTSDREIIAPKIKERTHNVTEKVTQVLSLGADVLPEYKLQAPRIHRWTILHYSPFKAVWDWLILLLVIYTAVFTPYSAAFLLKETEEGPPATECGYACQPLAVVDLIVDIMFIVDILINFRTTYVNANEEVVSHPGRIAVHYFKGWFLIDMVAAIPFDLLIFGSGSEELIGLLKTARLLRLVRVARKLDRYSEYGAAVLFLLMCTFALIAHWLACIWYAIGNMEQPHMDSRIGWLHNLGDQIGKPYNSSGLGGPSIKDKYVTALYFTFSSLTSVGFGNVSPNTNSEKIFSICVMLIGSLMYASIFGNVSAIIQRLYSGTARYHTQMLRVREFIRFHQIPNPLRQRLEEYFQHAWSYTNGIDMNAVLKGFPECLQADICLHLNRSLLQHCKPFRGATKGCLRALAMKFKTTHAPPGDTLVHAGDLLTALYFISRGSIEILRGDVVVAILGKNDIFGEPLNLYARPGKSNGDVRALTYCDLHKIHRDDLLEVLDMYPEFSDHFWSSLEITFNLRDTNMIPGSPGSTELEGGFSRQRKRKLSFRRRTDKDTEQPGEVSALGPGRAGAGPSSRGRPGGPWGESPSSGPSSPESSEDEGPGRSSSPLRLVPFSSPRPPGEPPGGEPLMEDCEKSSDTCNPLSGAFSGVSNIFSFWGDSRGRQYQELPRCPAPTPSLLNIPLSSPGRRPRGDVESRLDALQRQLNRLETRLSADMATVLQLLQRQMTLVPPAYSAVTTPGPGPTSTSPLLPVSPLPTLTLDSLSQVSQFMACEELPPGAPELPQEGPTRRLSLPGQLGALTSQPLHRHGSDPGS

Going from COC(=O)[C@@H]1CC[C@H](C)[C@@H](c2ccc(C)cc2)N1C(=O)c1ccc(/C=N/O[C@@H](C)CN2CCCCc3nc(C)c(C)cc32)cc1 to COc1ccc(CNC(=O)CN(c2ccc(C)cc2)S(=O)(=O)c2c(C)noc2C)cc1, the “hERG current change (%, negative = inhibition) at 10uM” value rises from 0.594% to 14.5%.

Compared with Cc1ccc(C2=NS(=O)(=O)N(C)C(C(=O)Nc3ccc(F)cc3F)=C2)cc1, Cc1ccc(NC(=O)c2c(O)c3ccccc3n(C)c2=O)nc1 is higher in “hERG current change (%, negative = inhibition) at 10uM” value: -17% for the first, 2.32% for the second.

First: C=CCOC(=O)C1C(=O)CC(C)(O)C(C(=O)OCC=C)C1c1ccc(OC)cc1 (centres unmarked)
Second: COC(=O)c1c(N)nc(C)n1-c1ccc(OC)cc1
The “hERG current change (%, negative = inhibition) at 10uM” value of the first is lower: 3.27% for the first, 18.2% for the second.

Going from CC(C)c1ccc(/C=C/C(=O)n2nnc3ccccc32)cc1 to O=C(CCCSc1nc2ccccc2c(=O)[nH]1)c1ccc(F)cc1, the “hERG current change (%, negative = inhibition) at 10uM” value falls from 15.5% to 3.3%.

First: CCCn1nc(C(=O)Nc2ccc(S(=O)(=O)Nc3ncccn3)cc2)c2ccccc2c1=O
Second: C=CCN(CC=C)S(=O)(=O)c1ccc(NC(=S)NC(=O)/C=C/c2cccc3ccccc23)cc1
The “hERG current change (%, negative = inhibition) at 10uM” value of the first is higher: 2.11% for the first, 1.52% for the second.

Going from COc1ccc(C(=O)O)cc1S(=O)(=O)N1CCN(c2ccccn2)CC1 to COc1ccc(C(=O)O)cc1S(=O)(=O)NC(C)(C)C, the “hERG current change (%, negative = inhibition) at 10uM” value falls from 11.8% to 6%.

Compared with CCOC(=O)c1ccc(Nc2nc(C)cc(C)n2)cc1, Cc1cccc(NC(=O)CSc2ncnc3sc(C)cc23)c1 is lower in “hERG current change (%, negative = inhibition) at 10uM” value: 16.7% for the first, 1.82% for the second.

Going from O=C(CC12CC3CC(CC(C3)C1)C2)NCC(=O)N1CCCC1 to CC(CNC(=O)C1CCCCC1)NC(=O)C1CCCCC1 (centres unmarked), the “hERG current change (%, negative = inhibition) at 10uM” value falls from 4.32% to -3.66%.

Going from O=C(CN1CCOCC1)N1CCN(c2ccc([N+](=O)[O-])cc2)CC1 to O=C(C1CCCO1)N1CCN(C(=S)Nc2ccc(F)cc2)CC1 (centres unmarked), the “hERG current change (%, negative = inhibition) at 10uM” value rises from -71.6% to 9.95%.

First: CC(C)(C)c1ccc(OCC(=O)N/N=C/c2cc(Br)ccc2OC(=O)c2ccco2)cc1
Second: CC(SCc1ccccc1)C(=O)N/N=C/c1ccc(OCC(=O)NCc2ccco2)cc1 (centres unmarked)
The “hERG current change (%, negative = inhibition) at 10uM” value of the first is higher: 22.4% for the first, -13% for the second.

Compared with Cc1cccc(C)c1N1C(=O)C(Cl)=C(N2CCCC2)C1=O, O=S(=O)(c1ccc(=S)[nH]c1)N1CCCCC1 is higher in “hERG current change (%, negative = inhibition) at 10uM” value: 15.7% for the first, 32.3% for the second.

First: COc1ccc(NC(=S)N(CCN2CCCCC2)Cc2ccco2)cc1
Second: O=C(CSc1nnc(-c2ccc(S(=O)(=O)N3CCCC3)cc2)o1)NCc1ccco1
The “hERG current change (%, negative = inhibition) at 10uM” value of the first is lower: -57.5% for the first, -7.57% for the second.

Compared with CCCN1CNc2c(c(=O)[nH]c(=S)n2CCc2ccc(OC)c(OC)c2)C1, COCCCNC(=O)CSc1nc2ccccc2c(=O)n1CCC(=O)NCCc1ccc(OC)c(OC)c1 is lower in “hERG current change (%, negative = inhibition) at 10uM” value: 14.5% for the first, 9.25% for the second.

Compared with COc1ccc(C2C(=O)N(C3CCCCC3)CC(=O)N2C2CCCCC2)cc1 (centres unmarked), COc1ccc(C(C(=O)NC2CCCC2)N(C(=O)c2csnn2)C2CC2)cc1 (centres unmarked) is higher in “hERG current change (%, negative = inhibition) at 10uM” value: -51.7% for the first, -6.81% for the second.

Going from CC1(C)CC(NC2C3CC4CC(C3)CC2C4)CC(C)(C)N1.Cl (centres unmarked) to Cc1cnc(C(=O)NC2CC(C)(C)Cc3c2cnn3-c2cccc(F)c2)cn1 (centres unmarked), the “hERG current change (%, negative = inhibition) at 10uM” value falls from 4.97% to -33.5%.

First: COc1ccc(Cl)cc1C(=O)NNC(=O)C1COc2ccccc2O1 (centres unmarked)
Second: Cc1ccccc1C(=O)NNC(=O)c1cc(N)cc([N+](=O)[O-])c1
The “hERG current change (%, negative = inhibition) at 10uM” value of the first is lower: 12.8% for the first, 24.4% for the second.

Going from O=C(c1cccc(S(=O)(=O)Nc2ccccc2Cl)c1)N1CCN(C(=O)c2ccco2)CC1 to COc1ccccc1NS(=O)(=O)c1ccc(O)c(C(=O)OCc2cccc([N+](=O)[O-])c2)c1, the “hERG current change (%, negative = inhibition) at 10uM” value rises from -12.7% to -10.9%.

Going from COC(=O)C1=C(c2ccccc2OCc2ccccc2)C[C@@H]2CC[C@H]1N2C(=O)NCc1ccc(N(C)C)cc1 to O=C(NC1CCCCC1)C(c1cccs1)N(C(=O)Cc1c[nH]c2ccccc12)c1ccc(F)cc1 (centres unmarked), the “hERG current change (%, negative = inhibition) at 10uM” value rises from 10.9% to 14.7%.

Going from O=C(CN(C(=O)CNC(=O)c1ccco1)c1ccc(F)cc1)NC1CCCC1 to NC(=O)c1nsc(C(=O)N(CC(=O)NC2CCCC2)Cc2ccc3c(c2)OCO3)c1N, the “hERG current change (%, negative = inhibition) at 10uM” value falls from 5.2% to -11.9%.

Compared with Cc1ncc([N+](=O)[O-])n1CCOc1nonc1N, Cc1nccn1CCC1CCCCN1C(=O)CCc1nnc(-c2ccsc2)o1 (centres unmarked) is lower in “hERG current change (%, negative = inhibition) at 10uM” value: 5.3% for the first, 0.295% for the second.

Going from COc1ccccc1N1CC(C(=O)Nc2nnc(SCC(=O)NCC3CCCO3)s2)CC1=O (centres unmarked) to COc1ccccc1CN1CC(C(=O)NCCn2ccc(C)n2)CCC1=O (centres unmarked), the “hERG current change (%, negative = inhibition) at 10uM” value rises from 15% to 15.7%.

Compared with COc1cc(CN2CCN(CCOCCO)CC2)cc(OC)c1OC, O=C(Cn1cc2c(n1)CCCC2)NCCCN1CCN(Cc2ccccc2)CC1 is lower in “hERG current change (%, negative = inhibition) at 10uM” value: -9% for the first, -21.4% for the second.

First: CCOC(=O)Nc1sc(C(=O)N(C)C)c(C)c1C(=O)OCC
Second: CCN(CC)C(=O)c1sc(NC(=O)Cc2cccs2)c(C#N)c1C
The “hERG current change (%, negative = inhibition) at 10uM” value of the first is higher: 5.73% for the first, -6.24% for the second.

Going from CN1/C(=C/C=N/NC(=O)c2ccc([N+](=O)[O-])cc2)C(C)(C)c2ccccc21 to O=[N+]([O-])c1ccc(N(CC2CO2)S(=O)(=O)c2ccccc2)cc1 (centres unmarked), the “hERG current change (%, negative = inhibition) at 10uM” value falls from -6.88% to -43.9%.

Going from COc1ccc(NC2=CC(c3ccc(F)cc3)N(c3ccc(OC)cc3)C2=O)cc1 (centres unmarked) to OC(COc1ccc2ccccc2c1)CN1CCN(c2ccc(F)cc2)CC1 (centres unmarked), the “hERG current change (%, negative = inhibition) at 10uM” value falls from -6.76% to -28%.

Going from CCCC(=O)NNc1c2ccccc2nc2ccccc12 to Cc1ccccc1C(=O)NC(=S)NCC(=O)c1ccccc1, the “hERG current change (%, negative = inhibition) at 10uM” value falls from 9.96% to 0.429%.

Going from CCOC(=O)C1=C(N)Oc2ccc3ccccc3c2C1c1ccc(O)cc1 (centres unmarked) to N/C(Cc1ccc(Cl)cc1)=N\OC(=O)c1ccccc1, the “hERG current change (%, negative = inhibition) at 10uM” value rises from -7.78% to 2.52%.

Compared with CN(C)S(=O)(=O)c1cccc(NC(=S)Nc2ccc3cn[nH]c3c2)c1, COc1cccc(CNS(=O)(=O)c2ccc3c(c2)N(C(C)=O)CCO3)c1 is lower in “hERG current change (%, negative = inhibition) at 10uM” value: 4.67% for the first, 3.92% for the second.

Going from CN(CCOc1ccc(Cl)cc1)C(=O)c1ccc2c(=O)n3c(nc2c1)CCC3 to CC1CCCC(C)N1CCCNC(=O)CN1C(=O)c2cccnc2Oc2ccc(Cl)cc21 (centres unmarked), the “hERG current change (%, negative = inhibition) at 10uM” value rises from -10.3% to 0.579%.

Going from CCOC(=O)CCc1nc2ccccc2[nH]c1=O to COc1ccccc1N1CCN(C(=O)CCn2c(=O)[nH]c3ccsc3c2=O)CC1, the “hERG current change (%, negative = inhibition) at 10uM” value rises from -18.7% to 8.71%.

Compared with CC1CCCCC1NC(=O)NC(=O)COC(=O)c1cncc(Br)c1 (centres unmarked), CCOC(=O)C1CCCN(C(=O)CSc2ccc(Br)cc2)C1 (centres unmarked) is lower in “hERG current change (%, negative = inhibition) at 10uM” value: -0.391% for the first, -33.6% for the second.

First: COC(=O)C1CCN(S(=O)(=O)c2ccc(Br)s2)CC1
Second: CC1CCN(c2c(NCC3CCC(C(=O)NCc4ccccc4)CC3)c(=O)c2=O)CC1 (centres unmarked)
The “hERG current change (%, negative = inhibition) at 10uM” value of the first is lower: -11.2% for the first, 10.5% for the second.

Going from CCOC(=O)c1c(SC)nc(SC)c2c1CCC2 to CCc1nnc(NC(=O)c2cccnc2SC)s1, the “hERG current change (%, negative = inhibition) at 10uM” value rises from 2.05% to 4.74%.

Compared with CCN1C(=O)N[C@@H](c2ccco2)C(C(C)=O)=C1C, COc1ccc(CN2CCNC(=O)C2CC(=O)O)c(OC)c1 (centres unmarked) is lower in “hERG current change (%, negative = inhibition) at 10uM” value: 21.6% for the first, 13.7% for the second.

Going from COc1ccc(Cl)cc1NC(=O)CNC(c1ccccc1)c1ccccc1 to O=C(O)CC1SC(=Nc2ccccc2)N(c2ccccc2)C1=O (centres unmarked), the “hERG current change (%, negative = inhibition) at 10uM” value rises from 12.6% to 16.8%.

First: CC(C)(C)c1nnc(NS(C)(=O)=O)s1
Second: COc1ccc(/C=C(/NC(=O)c2cccs2)C(=O)NC(C)(C)C)cc1OC
The “hERG current change (%, negative = inhibition) at 10uM” value of the first is lower: 8.21% for the first, 14.9% for the second.

Going from COCCCNC(=O)C1CC(=O)N(c2ccc(C)cc2)C1 (centres unmarked) to CC1CC(C)CN(CCCNC(=O)c2ccc3nc(N4CCCCC4)sc3c2)C1 (centres unmarked), the “hERG current change (%, negative = inhibition) at 10uM” value falls from 27.1% to -47.5%.

Compared with COC(=O)C1C(=O)NC(SC)=C(C#N)C1c1ccccc1F (centres unmarked), O=C1c2ccccc2NC(c2ccccc2O)N1O (centres unmarked) is higher in “hERG current change (%, negative = inhibition) at 10uM” value: 0.0833% for the first, 22.1% for the second.

First: COc1cccc(-n2cnc3sc(C)c(C)c3c2=O)c1
Second: Cc1cc(NC(=O)c2cc(-c3ccc4c(c3)OCO4)on2)n(-c2ccccc2)n1
The “hERG current change (%, negative = inhibition) at 10uM” value of the first is lower: -12% for the first, 13.5% for the second.

Compared with COc1ccc(CC2c3cc(OC)c(OC)cc3CC[N+]2(C)CCC(=O)OCCCCCOC(=O)CC[N+]2(C)CCc3cc(OC)c(OC)cc3C2Cc2ccc(OC)c(OC)c2)cc1OC.O=S(=O)([O-])c1ccccc1 (centres unmarked), O=C(NCc1ccccc1)C1=C[C@H](c2ccc(C(F)(F)F)cc2)C[C@H](OCCCCO)O1 is lower in “hERG current change (%, negative = inhibition) at 10uM” value: 3.55% for the first, -30.3% for the second.

Compared with CC(NC(=S)Nc1c(Br)cccc1OC(F)F)C(C)(C)C (centres unmarked), CC(C)(C)c1ccc(C(=O)N/C(=C/c2cccs2)C(=O)NCc2ccco2)cc1 is lower in “hERG current change (%, negative = inhibition) at 10uM” value: -2.39% for the first, -6.48% for the second.

First: CN(C)CCOC(=O)CCCCCCCCC(=O)OCCN(C)C.Cl
Second: CCCCCCn1c(O)c(/C=N/N2CCCCCC2)c(=O)[nH]c1=O
The “hERG current change (%, negative = inhibition) at 10uM” value of the first is higher: 6.69% for the first, 5.19% for the second.

Going from O=C(O)CCc1ccc(-c2ccc(F)cc2)n1CC1CCCO1 (centres unmarked) to CNC(=O)c1sc(-c2cccs2)nc1C, the “hERG current change (%, negative = inhibition) at 10uM” value rises from -22.5% to 16.1%.
